Source: the supplement of paper PMC8007513
Where a name gives a salt, the structure may show the parent alone. ± gives the standard error. The whole screen tested about 1,300 compounds, of which about 75 (6%) showed an effect of 50% or more. Some of the results follow.

Tested on: Trichoderma virens ATCC 9645
Assay: growth yield (OD600) relative to untreated control; higher = less growth inhibition
Details: compound concentration: 100 uM
Outline: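 Plates were read for OD600 at 40 h and 72 h after Trichoderma virens ATCC 9645 spores (15,000 spores ml^−1 in potato dextrose broth) were grown at 30 °C with library compounds at 100 μM final, with or without a biocide at 200 ng ml^−1. Growth is stated relative to the control with neither agent, as the mean of duplicate screens.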

COC(=O)Nc1nc2cc(Sc3ccccc3)ccc2[nH]1 [Fenbendazole]
growth yield (40 h): 96.3 ± 3.5%
growth yield (72 h): 98.8 ± 1.3%

Cn1c(=O)c2c(ncn2CC2OCCO2)n(C)c1=O [Doxofylline]
growth yield (40 h): 97.5 ± 4.1%
growth yield (72 h): 95.9 ± 2.9%

CCOc1nc2cccc(C(=O)O)c2n1Cc1ccc(-c2ccccc2-c2nnn[nH]2)cc1 [Candesartan]
growth yield (40 h): 103 ± 6.3%
growth yield (72 h): 107 ± 7.1%

C[C@@](Cc1ccc(O)c(O)c1)(NN)C(=O)O [Carbidopa]
growth yield (40 h): 97.4 ± 4.3%
growth yield (72 h): 99.2 ± 2.1%

Nc1ncnc2c1ncn2[C@@H]1O[C@H](CO)[C@@H](O)[C@@H]1O [Vidarabine]
growth yield (40 h): 104 ± 3.2%
growth yield (72 h): 100 ± 1.7%

CC(=O)OC[C@H]1O[C@@H]([S-])[C@H](OC(C)=O)[C@@H](OC(C)=O)[C@@H]1OC(C)=O.CCP(CC)CC.[Au+] [Auranofin]
growth yield (40 h): 25.6 ± 2.1%
growth yield (72 h): 33 ± 2%

CCCCc1oc2ccc(NS(C)(=O)=O)cc2c1C(=O)c1ccc(OCCCN(CCCC)CCCC)cc1 [Dronedarone hydrochloride]
growth yield (40 h): 6.19 ± 1.8%
growth yield (72 h): 1.99 ± 0.52%

CCC1(c2ccccc2)C(=O)NCNC1=O [Primidone]
growth yield (40 h): 98.8 ± 3.8%
growth yield (72 h): 98.1 ± 1.4%

CN(C)CCC(c1ccc(Br)cc1)c1ccccn1 (stereo not drawn) [Brompheniramine maleate]
growth yield (40 h): 98.5 ± 5.1%
growth yield (72 h): 101 ± 5.2%

O=C1CC[C@@H](C(=O)N2CSC[C@H]2C(=O)O)N1 [Pidotimod]
growth yield (40 h): 96.42 ± 0.16%
growth yield (72 h): 97.12 ± 0.21%

Oc1c(Cl)cc(Cl)c2cccnc12 [Chloroxine]
growth yield (40 h): 1.27 ± 0.32%
growth yield (72 h): 1.36 ± 0.32%

c1ccc(-c2ccc(C(c3ccccc3)n3ccnc3)cc2)cc1 (stereo not drawn) [Bifonazole]
growth yield (40 h): 2.86 ± 1.9%
growth yield (72 h): 1.99 ± 0.94%

C[C@]12CC[C@@H]3c4ccc(O)cc4C[C@@H](CCCCCCCCC[S+]([O-])CCCC(F)(F)C(F)(F)F)[C@H]3[C@@H]1CC[C@@H]2O (stereo partly drawn) [Fulvestrant]
growth yield (40 h): 104 ± 4%
growth yield (72 h): 106 ± 5%

CO/N=C(\C(=O)N[C@@H]1C(=O)N2C(C(=O)O)=C(COC(C)=O)CS[C@H]12)c1csc(N)n1 [Cefotaxime sodium salt]
growth yield (40 h): 99.6 ± 3.6%
growth yield (72 h): 101 ± 2.5%

CCCCOc1cc(C(=O)OCCN(CC)CC)ccc1N [Benoxinate hydrochloride]
growth yield (40 h): 103 ± 3%
growth yield (72 h): 103 ± 1.1%

Clc1ccc2nsnc2c1NC1=NCCN1 [Tizanidine hydrochloride]
growth yield (40 h): 99.91 ± 0.48%
growth yield (72 h): 99.3 ± 2%

Cc1cc2cc3c(C)cc(=O)oc3c(C)c2o1 [Trioxsalen]
growth yield (40 h): 42.1 ± 0.48%
growth yield (72 h): 73.7 ± 4.5%

CC(=O)Nc1nnc(S(N)(=O)=O)s1 [Acetazolamide]
growth yield (40 h): 108 ± 6.3%
growth yield (72 h): 104 ± 5.3%

CC(C)Oc1ccc2c(=O)c(-c3ccccc3)coc2c1 [Ipriflavone]
growth yield (40 h): 87 ± 3.2%
growth yield (72 h): 89.5 ± 1.8%

CNCC(O)c1ccc(O)c(O)c1 (stereo not drawn) [Racepinephrine hydrochloride]
growth yield (40 h): 95.6 ± 3.8%
growth yield (72 h): 89.1 ± 5%

CCOC1O[C@H]([C@@H](COCc2ccccc2)OCc2ccccc2)[C@H](OCc2ccccc2)[C@H]1O (stereo partly drawn) [Tribenoside]
growth yield (40 h): 90.2 ± 6%
growth yield (72 h): 87.2 ± 6.2%

CC(=O)Nc1c(I)c(C(=O)N[C@H]2C(O)O[C@H](CO)[C@@H](O)[C@@H]2O)c(I)c(N(C)C(C)=O)c1I (stereo partly drawn) [Metrizamide]
growth yield (40 h): 102 ± 13%
growth yield (72 h): 105 ± 12%

CCN(CC)CCNC(=O)c1ccc(N)cc1 [Procainamide hydrochloride]
growth yield (40 h): 102.5 ± 0.48%
growth yield (72 h): 105 ± 1.8%

CC[C@H]1OC(=O)[C@H](C)[C@@H](O[C@H]2C[C@@](C)(OC)[C@@H](O)[C@H](C)O2)[C@H](C)[C@@H](O[C@@H]2O[C@H](C)C[C@H](N(C)C)[C@H]2O)[C@](C)(O)C[C@@H](C)CN(C)[C@H](C)[C@@H](O)[C@]1(C)O [Azithromycin]
growth yield (40 h): 99.43 ± 0.32%
growth yield (72 h): 96.2 ± 1.1%

C[C@@H]1CCC[C@H](C)N1NC(=O)c1ccc(Cl)c(S(N)(=O)=O)c1 [Clopamide]
growth yield (40 h): 99.6 ± 1.8%
growth yield (72 h): 103 ± 3%

CN[C@H]1CC[C@@H](c2ccc(Cl)c(Cl)c2)c2ccccc21 [Sertraline]
growth yield (40 h): 101 ± 1.9%
growth yield (72 h): 117 ± 2.4%

CC(CNC1CCCCC1)OC(=O)c1ccccc1 (stereo not drawn) [Hexylcaine hydrochloride]
growth yield (40 h): 107 ± 5.2%
growth yield (72 h): 101 ± 4%

Nc1ccc(S(=O)(=O)Nc2nccs2)cc1 [Sulfathiazole]
growth yield (40 h): 104 ± 3.8%
growth yield (72 h): 102 ± 4.5%

Cc1ccc(-c2cc(C(F)(F)F)nn2-c2ccc(S(N)(=O)=O)cc2)cc1 [Celecoxib]
growth yield (40 h): 89 ± 1.9%
growth yield (72 h): 90.5 ± 2.2%

CCOC(=O)/C=C(C)/C=C/C=C(C)/C=C/c1c(C)cc(OC)c(C)c1C [Etretinate]
growth yield (40 h): 110 ± 6.3%
growth yield (72 h): 107 ± 5.5%

NC[C@H]1O[C@H](O[C@H]2[C@H](O)[C@@H](O[C@H]3O[C@H](CO)[C@@H](O)[C@H](N)[C@H]3O)[C@H](N)C[C@@H]2N)[C@H](N)C[C@@H]1O [Tobramycin]
growth yield (40 h): 105 ± 2.9%
growth yield (72 h): 103.4 ± 0.42%

C=CCOc1ccccc1OCC(O)CNC(C)C (stereo not drawn) [Oxprenolol hydrochloride]
growth yield (40 h): 118 ± 5.1%
growth yield (72 h): 111 ± 4.5%

Cc1c(N)c(=O)n(-c2ccccc2)n1C [Ampyrone]
growth yield (40 h): 96.6 ± 1.3%
growth yield (72 h): 97.43 ± 0.73%

CCN(CC)C(=O)C1(c2ccccc2)CC1CN (stereo not drawn) [Milnacipran hydrochloride]
growth yield (40 h): 93.4 ± 3.5%
growth yield (72 h): 90.5 ± 3.9%

Cc1cc(C(C)(C)C)cc(C)c1CC1=NCCN1 [Xylometazoline hydrochloride]
growth yield (40 h): 102.6 ± 0.95%
growth yield (72 h): 104 ± 1.3%

CCN(CCCCOC(=O)c1ccc(OC)c(OC)c1)C(C)Cc1ccc(OC)cc1 (stereo not drawn) [Mebeverine hydrochloride]
growth yield (40 h): 104.8 ± 0.64%
growth yield (72 h): 104 ± 1.1%

O=P(O)(O)C(O)(Cn1ccnc1)P(=O)(O)O [Zoledronic acid hydrate]
growth yield (40 h): 108 ± 4.5%
growth yield (72 h): 109 ± 1.6%

CCN(CC)CCOCCOC(=O)C1(c2ccccc2)CCCC1 [Carbetapentane citrate]
growth yield (40 h): 95.5 ± 1.4%
growth yield (72 h): 97.5 ± 2.5%

CCN(CC)C(=O)Nc1ccc(OCC(O)CNC(C)(C)C)c(C(C)=O)c1 (stereo not drawn) [Celiprolol hydrochloride]
growth yield (40 h): 103 ± 6.7%
growth yield (72 h): 104 ± 6.4%

CCCCC1C(=O)N(c2ccccc2)N(c2ccc(O)cc2)C1=O (stereo not drawn) [Oxyphenbutazone]
growth yield (40 h): 117 ± 3.6%
growth yield (72 h): 111.8 ± 0.21%

N[C@H]1CONC1=O [(S)-(-)-Cycloserine]
growth yield (40 h): 104 ± 3.3%
growth yield (72 h): 96.8 ± 3%

COc1cc2nc(N3CCN(C(=O)C4COc5ccccc5O4)CC3)nc(N)c2cc1OC (stereo not drawn) [Doxazosin mesylate]
growth yield (40 h): 97.7 ± 5.2%
growth yield (72 h): 103 ± 8.9%

CCCOc1ccccc1-c1nc2[nH]nnc2c(=O)[nH]1 [Zaprinast]
growth yield (40 h): 99.1%
growth yield (72 h): 106 ± 1.1%

CCCCCCNC(=O)n1cc(F)c(=O)[nH]c1=O [Carmofur]
growth yield (40 h): 16.4 ± 0.48%
growth yield (72 h): 33.1 ± 5.5%
